# Measured values: a collection of fitness landscapes (doi:10.1126/science.1257360)
# The list shows a part of the results.
# B1: PhoQ; a variant is named by its letters at X, in order, P23837 (parent)
# chain: MKKLLRLFFPLSLRVRFLLATAAVVLVLSLAYGMVALIGYSVSFDKTTFRLLRGESNLFYTLAKWENNKLHVELPENIDKQSPTMTLIYDENGQLLWAQRDVPWLMKMIQPDWLKSNGFHEIEADVNDTSLLLSGDHSIQQQLQEVREDDDDAEMTHSVAVNVYPATSRMPKLTIVVVDTIPVELKSSYMVWSWFIYVLSANLLLVIPLLWVAAWWSLRPIEALAKEVRELEEHNRELLNPATTRELTSLVRNLNRLLKSERERYDKYRTTLTDLTHSLKTPLXXLQXXLRSLRSEKMSVSDAEPVMLEQISRISQQIGYYLHRASMRGGTLLSRELHPVAPLLDNLTSALNKVYQRKGVNISLDISPEISFVGEQNDFVEVMGNVLDNACKYCLEFVEISARQTDEHLYIVVEDDGPGIPLSKREVIFDRGQRVDTLRPGQGVGLAVAREITEQYEGKIVAGESMLGGARMEVIFGRQHSAPKDE
# Variants of: B1
# Assay: enrichment ratio after two sorts for PhoP signalling (ratio (wild type AVST 3.29)); higher = more functional
# Details: with PhoP (E. coli)
row,Variant,enrichment ratio
1,YKCG,≤ 0.25
2,QQIM,≤ 0.25
3,SMAF,6.44
4,RVSM,≤ 0.25
5,QRWW,≤ 0.25
6,YVWH,≤ 0.25
7,EFDK,≤ 0.25
8,PDSD,≤ 0.25
9,RNMW,≤ 0.25
10,AKYR,≤ 0.25
11,PCNM,≤ 0.25
12,FYEY,≤ 0.25
13,VLTH,≤ 0.25
14,ASFN,≤ 0.25
15,VEAF,≤ 0.25
16,WKEF,≤ 0.25
17,WEPV,≤ 0.25
18,ADFY,≤ 0.25
19,WDDV,≤ 0.25
20,IMFN,≤ 0.25
21,RTII,≤ 0.25

row,Variant,enrichment ratio
1,MQTR,≤ 0.25
2,EHMV,≤ 0.25
3,MNKI,≤ 0.25
4,FFSY,≤ 0.25
5,IQDL,≤ 0.25
6,RLSG,≤ 0.25
7,FNHC,≤ 0.25
8,RGNA,≤ 0.25
9,REMA,≤ 0.25
10,DPQG,≤ 0.25
11,LNVS,≤ 0.25
12,AVSG,16.7
13,VTFK,≤ 0.25
14,CSVG,≤ 0.25
15,TYGP,≤ 0.25
16,VLES,≤ 0.25
17,STCA,7.48
18,GTIW,≤ 0.25
19,VWVY,≤ 0.25
20,AGIA,0.868
21,VMTH,≤ 0.25

row,Variant,enrichment ratio
1,ASRW,≤ 0.25
2,KTLA,≤ 0.25
3,LTIQ,≤ 0.25
4,IQAY,≤ 0.25
5,STQM,12.8
6,LSCS,≤ 0.25
7,KRIW,≤ 0.25
8,DFTY,≤ 0.25
9,ITTI,≤ 0.25
10,WSAH,≤ 0.25
11,VRLA,≤ 0.25
12,PMTE,≤ 0.25
13,TMGD,3.55
14,KNYM,≤ 0.25
15,ATYN,2.69
16,SYDV,≤ 0.25
17,RDGM,≤ 0.25
18,DRKY,≤ 0.25
19,QNPE,≤ 0.25
20,RMQM,≤ 0.25
21,HHLD,≤ 0.25

row,Variant,enrichment ratio
1,FQVW,≤ 0.25
2,VTYG,≤ 0.25
3,AMEP,≤ 0.25
4,SYIT,≤ 0.25
5,FVVF,≤ 0.25
6,LVYH,≤ 0.25
7,DVPK,≤ 0.25
8,MAEG,≤ 0.25
9,NSPG,≤ 0.25
10,SPND,≤ 0.25
11,HMCE,≤ 0.25
12,SCMV,9.09
13,MSVG,≤ 0.25
14,YMVR,≤ 0.25
15,KKQG,≤ 0.25
16,KNGP,≤ 0.25
17,SSLH,11.4
18,PEII,≤ 0.25
19,WGMV,≤ 0.25
20,YYST,≤ 0.25
21,YPGF,≤ 0.25
